Measured values as given in PubChem BioAssay AID1476 (National Center for Advancing Translational Sciences (NCATS), 2009).
Where “and” joins values, the source holds several entries; their conditions need not be identical. Equal values may be shown once. The campaign covered roughly 200,000 compounds. About 4,500 (2.2%) were called active. The shares of active, inactive and inconclusive entries below differ from those in the screen. The call rests on the fitted dose curve; in most records, active means well fitted inhibition curve with a large enough effect; inconclusive means small, poorly fitted or top-dose-only effect, or effect the other way; inactive means flat fitted curve, though single readings scatter. A potency beside an inconclusive call is a rough fit, not a confirmed value.
Further: nearly all actives have a fitted effect of over 40% in size.
Potency means the concentration at half of the fitted maximal effect; tags describe the fitted curve by direction and shape.
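Wherever max response, negative = inhibition is given: plate controls were enzyme without inhibitor for no effect and buffer without enzyme for full effect.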

These compounds were tested against Cruzipain (Trypanosoma cruzi) (UniProt P25779) (assay: qHTS Assay for Promiscuous and Specific Inhibitors of Cruzain (without detergent)). Settings: purified cruzain, Z-FR-AMC fluorescence, no detergent.
Sequence of UniProt P25779 (P25779 whole entry, looked up): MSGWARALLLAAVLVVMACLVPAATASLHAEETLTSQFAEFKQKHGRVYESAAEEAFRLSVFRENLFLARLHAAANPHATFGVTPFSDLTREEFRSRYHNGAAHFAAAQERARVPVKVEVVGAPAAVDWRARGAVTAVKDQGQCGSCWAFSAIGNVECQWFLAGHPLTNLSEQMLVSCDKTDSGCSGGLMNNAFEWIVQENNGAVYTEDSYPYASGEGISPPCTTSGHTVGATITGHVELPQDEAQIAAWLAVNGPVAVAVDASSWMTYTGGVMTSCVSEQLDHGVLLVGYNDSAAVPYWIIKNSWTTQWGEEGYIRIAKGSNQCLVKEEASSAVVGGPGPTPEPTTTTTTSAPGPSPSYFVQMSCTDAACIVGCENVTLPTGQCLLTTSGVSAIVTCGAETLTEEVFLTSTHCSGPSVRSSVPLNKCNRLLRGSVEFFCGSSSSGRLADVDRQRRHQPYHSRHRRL
In short: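 Purified cruzain at 1.5 nM, pre-incubated 15 min with compound at room temperature in 100 mM sodium acetate pH 5.5, 5 mM DTT, 0.00005% Triton X-100. Reaction started with 2 uM Z-FR-AMC; AMC fluorescence increase over 60 s gives rate.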
In the case of `O=C(CN(c1ccc(Cl)cc1)S(=O)(=O)c1ccc(Cl)c([N+](=O)[O-])c1)NCCc1ccc(F)cc1`, the Potency is reported as inconclusive: 20 µM [inhibitor, partial curve, poor fit].
In the case of `COc1cc(NC(=O)C2=C(N3CCOCC3)/C(=C/c3ccc(Cl)cc3)CC2)cc(OC)c1OC`, the Potency is reported as inconclusive: 12.6 µM [activator, partial curve].
With `N#C/C(C(=O)NCCc1ccccc1)=C1/N=C(NC(=O)c2cccs2)c2ccccc21` the Potency was active: 3.98 µM.
`Cc1cccc(OCC(=O)NCCc2nc3ccccc3[nH]2)c1C` was tested, and the max response, negative = inhibition was inactive: 3.28%.
For `CN1/C(=C\C=C2\N=C(c3ccc(F)cc3)OC2=O)C(C)(C)c2ccccc21`, the Potency was inconclusive: 39.8 µM [inhibitor, single point].
With `O=C(Oc1cccc(/C=N/Nc2nc(Nc3ccccc3)nc(N3CCOCC3)n2)c1)c1ccco1` the Potency was inconclusive: 39.8 µM [inhibitor, single point].
In the case of `CCOC(=O)CC(=O)CSc1nc(N)c(C#N)c(-c2ccc(Cl)cc2)c1C#N`, the Potency is reported as active: 31.6 µM.
`Cc1cc(C(F)(F)F)c(C#N)c(SCC(=O)Nc2nc3cc(Br)ccc3s2)n1` was tested, and the Potency was active: 20 µM.
For `O=C(Nc1nc2ccccc2s1)c1ccc(N2CCCCC2)c([N+](=O)[O-])c1`, the Potency was inconclusive: 31.6 µM [inhibitor, single point].
In the case of `Cc1nc2cc(-c3ccccc3)nn2c(C)c1CCC(=O)N1CCC2(CC1)OCCO2`, the Potency is reported as inconclusive: 25.1 µM [activator, partial curve].
In the case of `O=C(Nc1ccccn1)c1c(O)c2cccc3c2n(c1=O)CCC3`, the Potency is reported as inconclusive: 31.6 µM [activator, single point].
In the case of `CCc1ccc(NC(=O)CSc2ccc3nc(-c4ccc(OC)cc4)cn3n2)cc1`, the Potency is reported as inconclusive: 3.98 µM [activator, single point].
`COc1ccc(Br)cc1C(=O)Nc1ccc(-c2nc3ncccc3o2)cc1C` was tested, and the max response, negative = inhibition was inactive: -6.75%.
In the case of `O=C(Cn1nc(-c2ccccc2)nc(Cc2ccccc2)c1=O)Nc1ccc(Cl)cc1`, the Potency is reported as inconclusive: 39.8 µM [inhibitor, single point].
With `Cc1cccc(NC(=O)Cn2nnc(C(=O)NCc3ccco3)c2N)c1` the Potency was inconclusive: 20 µM [inhibitor, single point].
For `CCCOc1ccc(NC(=O)CC2C(=O)N(c3ccc(C)cc3)C(=O)N2CCc2ccncc2)cc1` (centres undefined), the Potency was inconclusive: 39.8 µM [activator, single point].
In the case of `CCN(C(=O)CSc1nnc(Cn2nnc3ccccc32)o1)c1nc(-c2ccccc2)cs1`, the Potency is reported as inconclusive: 39.8 µM [inhibitor, single point].
In the case of `O=C(Cn1ccn(-c2ccc(F)cc2)c(=O)c1=O)Nc1ccccc1C(F)(F)F`, the max response, negative = inhibition is reported as inactive: 14.4%.
With `N#Cc1ccc(OCC(=O)Nc2cc(S(=O)(=O)N3CCCCC3)ccc2N2CCCCC2)cc1` the Potency was inconclusive: 39.8 µM [inhibitor, single point].
For `CN(C)c1ccc(N=O)cc1`, the Potency was active: 31.6 µM.
In the case of `CCC(=O)N1CCc2cc(Br)cc(S(=O)(=O)N3CCC(C(=O)Nc4ccccc4F)CC3)c21`, the Potency is reported as inconclusive: 39.8 µM [activator, single point].
For `Cc1cc(N2CCN(C(=O)c3ccco3)CC2)nc(-c2ccccc2)n1`, the max response, negative = inhibition was inactive: -9.57%.
For `Cc1ccc(C(=O)Nc2nnc(S(=O)(=O)N3CCCCCC3)s2)cc1`, the max response, negative = inhibition was inactive: -2.58%.
For `COC(=O)[C@@]1(Cc2ccc(F)cc2)[C@H]2c3cc(C(=O)N(C)C)n(Cc4ccc(C)o4)c3C[C@H]2CN1C(=O)c1ccccc1`, the Potency was inconclusive: 20 µM [activator, partial curve].
`CC(=O)NCCNc1nc(-c2ccccc2Cl)nc2ccccc12` was tested, and the max response, negative = inhibition was inactive: -4.72%.
`Cc1onc(-c2ccccc2Cl)c1C(=O)N1CCN(c2nc3ccccc3s2)CC1` was tested, and the Potency was inconclusive: 31.6 µM [activator, single point].
With `COc1ccc(CCN2CCCn3c2nc2c3c(=O)n(Cc3ccccc3F)c(=O)n2C)cc1OC` the Potency was inconclusive: 31.6 µM [activator, single point].
With `Cc1ccc(C(=O)n2cc(CCN3CCS(=O)(=O)CC3)c3ccccc32)cc1` the Potency was inconclusive: 39.8 µM [activator, single point].
`CC(C)(C)OC(=O)N1CCC(c2c(C(=O)N3CCN(c4ccccc4F)CC3)cnn2-c2ccccc2Cl)CC1` was tested, and the Potency was inconclusive: 3.16 µM [activator, single point].
`CCOC(=O)N1CCC(N2C(=O)c3ccccc3C2Nc2ccccc2C)CC1` (centres undefined) was tested, and the Potency was inconclusive: 31.6 µM [activator, single point].
With `O=C(CSc1nc2cc3ccccc3cc2[nH]1)Nc1ccc(F)cc1` the Potency was inconclusive: 39.8 µM [inhibitor, single point] and inconclusive: 31.6 µM [inhibitor, single point].
`CC(=O)Nc1c(C)nn(-c2ccccc2)c1N1CCC(C(=O)NCc2cccc(Cl)c2)CC1` was tested, and the Potency was inconclusive: 31.6 µM [activator, single point].
With `COc1cc(Cl)c(NC(=O)CCc2nc3cccnc3n2-c2ccccc2)c(OC)c1` the Potency was inconclusive: 39.8 µM [activator, single point].
With `COc1ccc(OC)c(NC(=O)c2cnc(Nc3ccc(C)c(Cl)c3)c3ccccc23)c1` the Potency was active: 6.31 µM.
In the case of `COc1ccc(C(NC(=O)c2ccccc2F)NC(=O)c2ccccc2F)cc1`, the Potency is reported as inconclusive: 31.6 µM [inhibitor, single point].
In the case of `Cc1cccc(CNc2ncnc3ccc(-c4cccc(C#N)c4)cc23)c1`, the max response, negative = inhibition is reported as inactive: -3.47%.
In the case of `CCCCC1=CC2=C(OC(C)=O)C(=O)C(C)(OC(=O)c3ccc(Cl)nc3)C(=O)C2=CO1` (centres undefined), the max response, negative = inhibition is reported as inactive: 3.8%.
`CCN(CC)C(=O)Cn1c(=O)n(-c2ccc(C)c(C)c2)c(=O)c2c(C)c(C(=O)N(CC)CC)sc21` was tested, and the Potency was inconclusive: 39.8 µM [activator, single point].
`CC(=O)c1sc(NC(=O)c2c(-c3ccccc3)c(-c3ccccc3)nn(C)c2=O)nc1C` was tested, and the Potency was inconclusive: 39.8 µM [activator, single point].
